# Reference: PMC6212790
# This is one part of the list. At the low end of the ranking the order means little.
# Target: T1, GST-Rok (full length) (UniProt O34857)
# T1 sequence: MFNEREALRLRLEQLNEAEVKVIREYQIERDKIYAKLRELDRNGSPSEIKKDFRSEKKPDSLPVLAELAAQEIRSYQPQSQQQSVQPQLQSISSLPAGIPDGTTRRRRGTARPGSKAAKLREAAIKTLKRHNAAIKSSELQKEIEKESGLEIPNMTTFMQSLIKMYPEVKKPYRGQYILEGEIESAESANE
# Test: protein binding microarray;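 further: rank score from −0.5 (least bound) to 0.5 (best bound)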
# Conditions: Rok is a gene silencer of Bacillus subtilis; high values mean tight binding; most listed sequences are background and not binding sites; double strand, one strand shown
row,Sequence,binding signal [E-score]
1,GAAATCAA,0.0917
2,CGAGCGCG,-0.137
3,ACCGCGCT,-0.0144
4,AAGAGATT,-0.0282
5,GAATTAGC,0.266
6,CGTGGATC,-0.0805
7,GGGGGTAA,-0.317
8,CAAGAAAA,-0.0182
9,TCAGCGGA,-0.0336
10,AAGCGATA,0.105
11,GACACATC,0.0187
12,CACCTCCG,-0.215
13,CAACCTAG,-0.0348
14,ACTGAGAT,0.0223
15,ATTCCATA,0.223
16,GCGCGGAC,-0.116
17,CTGAAAAC,-0.1
18,AAATGGGA,-0.0385
19,AAAGACTC,-0.0693
20,ATATGGCC,-0.00121
21,CCGGCACA,-0.19
22,ACCCCGCC,-0.285
23,ACGAACAC,0.00736
24,TAAAAGCA,0.143
25,ACTCAAAA,0.131

row,Sequence,binding signal [E-score]
1,GCTCGCTA,0.043
2,ACACTTTG,-0.222
3,AGTGCTAT,0.0907
4,CTCACGTC,-0.0878
5,GCTTACAC,-0.0416
6,CACCTGGC,-0.206
7,CCTTGGTC,-0.143
8,CGGTAGGC,-0.0402
9,AAGCTCTG,-0.319
10,GAAAGTTC,0.0567
11,ACCAATCT,0.248
12,TTGCTAAA,0.0923
13,CACTGGCC,-0.198
14,TAGGGCGA,0.108
15,AACTTGTA,0.288
16,GGCAATGA,0.0826
17,AATATTCC,0.131
18,CGGGATCA,-0.166
19,CAATGGGA,0.133
20,GTAACATA,0.295
21,ATGCCGAA,-0.0575
22,CACTAGGG,-0.00554
23,CTATCAAC,0.182
24,CAAATGGG,-0.178
25,ACCAGCAG,-0.262

row,Sequence,binding signal [E-score]
1,AAATCCAC,0.108
2,CAGGGTGG,-0.258
3,CCCATAAA,-0.0815
4,ACAGCAAC,0.0954
5,CGGCGCAC,-0.229
6,CATTAAAA,0.0165
7,GTAATCAA,0.0748
8,AGCTTGAC,-0.18
9,GACTTAAA,0.0192
10,CTCATAAG,-0.129
11,GCGAGGAA,-0.162
12,TATCCATA,0.21
13,AATGCCGA,0.0217
14,AGTGCGCG,-0.214
15,AAGACCTA,-0.0586
16,CGGTGTAA,-0.126
17,AACACCCA,-0.0109
18,AATTGATG,0.217
19,ATTATTTC,0.242
20,CAGCGTTC,-0.286
21,TCGATTCA,0.0919
22,TACGGAAA,0.0669
23,CTCGATTC,0.147
24,ACTAAGCC,-0.0422
25,CATTGTGC,0.138

row,Sequence,binding signal [E-score]
1,CTCAGCGA,-0.164
2,ACTTGGCG,-0.0706
3,ATACCCGC,-0.18
4,CCCACCGG,-0.265
5,CGGGCTAA,-0.208
6,CCTAGCTC,-0.133
7,ACTACAGG,0.148
8,ACCAGTCG,-0.155
9,CGGACGGA,-0.335
10,GCTATGAA,0.135
11,CATATCAG,0.0525
12,ATCCCCGC,-0.179
13,GGGCAGAA,-0.117
14,AAGTGAAC,-0.182
15,ACTGCAGT,0.296
16,AGTGTCTG,-0.0948
17,AACATTTC,0.109
18,ACCTGCAT,0.00779
19,AAGGAGGA,-0.257
20,CATCGGCA,-0.205
21,TGTGCCAA,-0.162
22,CAGACACA,-0.0772
23,AGGCCTGG,-0.28
24,ATAGTTAG,0.319
25,GTTCGCCA,0.0452

row,Sequence,binding signal [E-score]
1,ATCCCCGA,-0.0219
2,AGAGCGCG,-0.0123
3,GAGCGCTA,-0.0754
4,CCGCTACA,0.0266
5,AATAGTTC,0.333
6,GGTGTGTA,0.271
7,GACCGAAC,-0.182
8,AGGGCGAA,-0.0482
9,CCTCTCGC,-0.252
10,CTCATAAA,0.104
11,CGAAGCGC,-0.157
12,ATCTTCAG,0.0268
13,GAGACCTA,-0.112
14,ACCCGAAC,-0.125
15,AGCTCTAG,-0.0656
16,ACTAAACG,0.131
17,GCGTCCAC,-0.296
18,GTTTGCTA,0.219
19,TCCCCTAA,-0.203
20,CAAATGAG,-0.123
21,ATCTGGAC,0.0182
22,ATATGTCA,0.176
23,AGGCCTGA,-0.23
24,AATTAGTA,0.416
25,AACAAGTA,0.284

row,Sequence,binding signal [E-score]
1,ATTGCAGC,-0.119
2,CTGCACCC,-0.345
3,AAGGCCGT,-0.26
4,TAAGGCTA,-0.0654
5,AACAACCA,0.0337
6,ATCGTCTC,-0.0382
7,AGAGAAAT,0.223
8,AACAGCAG,0.00609
9,CACCCACA,-0.125
10,AGGGGAAT,-0.365
11,ACACGGAC,-0.115
12,TCCCCCCA,-0.263
13,ATGCGACC,-0.31
14,GAGTCGAC,-0.151
15,CCGATCCG,-0.19
16,ACTGCTAT,0.19
17,ACTGCCGC,-0.152
18,CGACTGCG,-0.277
19,ATCGAGCG,0.0731
20,GGTACACC,-0.0688
21,AATGGTGG,-0.159
22,CGAGGGTC,-0.153
23,ACGTGACA,-0.124
24,GACTGGCC,-0.0568
25,CGCCAACC,-0.149

row,Sequence,binding signal [E-score]
1,CACAGGTA,0.0263
2,ACCTAGCT,0.101
3,ATCAGCTG,0.0593
4,CAGTTCGA,0.0767
5,AACAGTGA,0.12
6,ACAAGGTA,0.166
7,TATGTGAA,0.19
8,AATGGCAC,-0.0215
9,CCTGAAAG,-0.179
10,CGGACAAG,-0.161
11,AATCCAAG,0.135
12,AGGGAGGC,-0.403
13,CCTTTGAC,-0.168
14,GCTCGTCC,-0.345
15,GTATTGGA,0.0777
16,GATATATA,0.365
17,GGCTTCTA,0.197
18,CTGTTTCC,-0.0425
19,ACTAATCG,0.0113
20,TGACCCAA,-0.267
21,CGGCAAGC,-0.233
22,ACGCGGTA,-0.0332
